This passage reports response results from article PMC4509486 (2015).

The labels stand for the following.
B1: STIM1_([…])-CFP [human] / YFP-SOAR [not stated] (parent complex)
chain 1: LSHSHSEKATGTSSGANSEESTAAEFCRIDKPLCHSEDEKLSFEAVRNIHKLMDDDANGDVDVEESDEFLREDLNYHDPTVKHSTFHGEDKLISVEDLWKAWKSSEVYNWTVDEVVQWLITYVELPQYEETFRKLQLSGHAMPRLAVTNTTMTGTVLKMTDRSHRQKLQLKALDTVLFGPPLLTRHNHLKDFMLVVSIVIGVGGCWFAYIQNRYSKEHMKKMMKDLEGLHRAEQSLHDLQERLHKAQEEHRTVEVEKVHLEKKLRDEINLAKQEAQRLKELREGTENE
chain 2: not shown

Variants of B1 are the subject of the assay. In words: FRET (CFP donor / YFP acceptor) in HEK293 cells; resting, before ionomycin; read off a plot.
chain 1 L236G: the response is approximately 0.02 E_app.

In the case of chain 1 L239G, the response was approximately 0.045 E_app.

Regarding chain 1 L243G, the response is approximately 0.13 E_app.
